About 110 (5.5%) of roughly 2,000 compounds showed an effect of 50% or more. The list shows a part of the results.
Biological target: Genome polyprotein (dengue virus type 2) (UniProt P29990)
[1] = Thailand/16681/1984, Concentration 25.0 uM, Number of replicates 1.0

For `Cc1cc(CO)c2cccc(NC(=O)[C@H](N)CCO)c2n1`, which inhibition (Thailand/16681/1984, Concentration 49.95 uM, Number of replicates 2.0, Standard deviation 1.3748527891361653 %) is on record?
Its inhibition is 4.54%.

What about the inhibition (Thailand/16681/1984, Concentration 99.9 uM, Number of replicates 2.0, Standard deviation 1.6498238864430592 %) of the same molecule?
Its inhibition is 9.95%.

For `c1ccc2c([C@H]3CCN(Cc4ccnn4C4CCOCC4)C3)c[nH]c2c1`, which inhibition (Thailand/16681/1984, Concentration 49.5 uM, Number of replicates 2.0, Standard deviation 0.1745039264906869 %) is on record?
The inhibition was 0.381%.

And the inhibition (Thailand/16681/1984, Concentration 99.01 uM, Number of replicates 2.0, Standard deviation 0.15770381335260797 %)?
The inhibition was 1.5%.

And the inhibition (Thailand/16681/1984, Concentration 198.0 uM, Number of replicates 2.0, Standard deviation 0.5787893521959783 %)?
The inhibition was 3.57%.

`CC1(C)CC(O)CC(C)(C)N1C(=O)C1CCN(c2ccc(C=O)cc2)CC1` was tested. Which inhibition [1] did it give?
Its inhibition is 15.1%.

With `C[C@@H](CNC(=O)c1ccn([C@H]2CCCNC2)n1)c1cccc(=O)[nH]1` as the molecule, how does the inhibition (Thailand/16681/1984, Concentration 49.5 uM, Number of replicates 2.0, Standard deviation 1.5269022655862485 %) read?
Its inhibition is -4.55%.

What about the inhibition (Thailand/16681/1984, Concentration 99.01 uM, Number of replicates 2.0, Standard deviation 4.327641102496904 %) of the same molecule?
Its inhibition is -0.849%.

And the inhibition (Thailand/16681/1984, Concentration 198.0 uM, Number of replicates 2.0, Standard deviation 3.1874263939292535 %)?
The inhibition was -1.67%.

What does the source list for `N#CC1(c2ccccc2)CCN(Cc2c[nH]c3ccccc23)CC1`?
inhibition (Thailand/16681/1984, Concentration 49.5 uM, Number of replicates 2.0, Standard deviation 1.499116576383805 %): -0.312%; inhibition (Thailand/16681/1984, Concentration 99.01 uM, Number of replicates 2.0, Standard deviation 1.285596358654136 %): 0.831%; inhibition (Thailand/16681/1984, Concentration 198.0 uM, Number of replicates 2.0, Standard deviation 1.1449542902700944 %): 2.09%

How did the inhibition (Thailand/16681/1984, Concentration 49.95 uM, Number of replicates 2.0, Standard deviation 0.858525740782908 %) turn out when `CC(=O)N[C@@H](CCCCN)C(=O)Nc1cccc(Cc2cccc3c(CO)cc(C)nc23)c1` was run?
Its inhibition is -3.5%.

And the inhibition (Thailand/16681/1984, Concentration 99.9 uM, Number of replicates 2.0, Standard deviation 1.064156674332285 %)?
The inhibition was 6.38%.

`COc1cccc(C2CCN(Cc3c[nH]c4ccccc34)CC2)c1` was tested. Which inhibition (Thailand/16681/1984, Concentration 49.5 uM, Number of replicates 2.0, Standard deviation 0.36080661034090755 %) did it give?
Its inhibition is 2.06%.

And the inhibition (Thailand/16681/1984, Concentration 99.01 uM, Number of replicates 2.0, Standard deviation 0.6028563828074571 %)?
The inhibition was 4.21%.

What about the inhibition (Thailand/16681/1984, Concentration 198.0 uM, Number of replicates 2.0, Standard deviation 0.9368600420126497 %) of the same molecule?
Its inhibition is 7.53%.

How did the inhibition [1] turn out when `O=Cc1ccc(N2CCC(C(=O)N3CCCCC[C@H]3c3ccco3)CC2)cc1` was run?
Its inhibition is 13.4%.

For `Cc1cc(CO)c2cccc(Cc3cccc(C(=O)Nc4ccc(C(=O)O)o4)c3)c2n1`, which inhibition (Thailand/16681/1984, Concentration 49.95 uM, Number of replicates 2.0, Standard deviation 0.4498774840540114 %) is on record?
The inhibition was 35.3%.

And the inhibition (Thailand/16681/1984, Concentration 99.9 uM, Number of replicates 2.0, Standard deviation 0.6611646932609445 %)?
Its inhibition is 80.5%.

Which results are given for `CC(C)(CO)NC(=O)c1cc(Cl)cc(NC(=O)COc2cc(Cl)cc(Cl)c2)c1`?
inhibition (Thailand/16681/1984, Concentration 49.5 uM, Number of replicates 2.0, Standard deviation 14.819601369296757 %): 9.17%; inhibition (Thailand/16681/1984, Concentration 99.01 uM, Number of replicates 2.0, Standard deviation 0.9513012697965588 %): -0.479%; inhibition (Thailand/16681/1984, Concentration 198.0 uM, Number of replicates 2.0, Standard deviation 0.47387842840702515 %): 2.17%

Which inhibition (Thailand/16681/1984, Concentration 49.5 uM, Number of replicates 2.0, Standard deviation 1.075367651742486 %) does the source give for `COc1cccc(CC(=O)Nc2cccc(C(=O)O)c2)c1` here?
Its inhibition is -1.33%.

And the inhibition (Thailand/16681/1984, Concentration 99.01 uM, Number of replicates 2.0, Standard deviation 0.5309986192009905 %)?
The inhibition was -1.52%.

What about the inhibition (Thailand/16681/1984, Concentration 198.0 uM, Number of replicates 2.0, Standard deviation 0.10935133662395478 %) of the same molecule?
The inhibition was -0.132%.

How did the inhibition (Thailand/16681/1984, Concentration 49.5 uM, Number of replicates 2.0, Standard deviation 0.8156312071794307 %) turn out when `O=C(N[C@H]1CCOC1)c1cc(Cl)ccc1NS(=O)(=O)c1ccc(Oc2ccccc2Cl)cc1` was run?
Its inhibition is 64.1%.

And the inhibition (Thailand/16681/1984, Concentration 99.01 uM, Number of replicates 2.0, Standard deviation 0.42939613872644544 %)?
Its inhibition is 63.6%.

What about the inhibition (Thailand/16681/1984, Concentration 198.0 uM, Number of replicates 2.0, Standard deviation 0.707503298737338 %) of the same molecule?
The inhibition was 53%.

With `CNC(=O)c1cc(Cl)ccc1NS(=O)(=O)c1cnn(CC(C)C)c1` as the molecule, how does the inhibition (Thailand/16681/1984, Concentration 49.5 uM, Number of replicates 2.0, Standard deviation 0.9417274972534758 %) read?
The inhibition was -7.39%.

What does the source list for `Cc1cc(CO)c2cccc(Cc3cccc(NC(=O)C[C@H]4CCCN4)c3)c2n1`?
inhibition (Thailand/16681/1984, Concentration 49.95 uM, Number of replicates 2.0, Standard deviation 0.1263380443971036 %): -4.58%; inhibition (Thailand/16681/1984, Concentration 99.9 uM, Number of replicates 2.0, Standard deviation 0.8674748654209231 %): -4.17%

For `CNC(=O)c1cc(Cl)ccc1NS(=O)(=O)c1ccc(Cl)cc1C(=O)OC`, which inhibition (Thailand/16681/1984, Concentration 49.5 uM, Number of replicates 2.0, Standard deviation 2.167906435330492 %) is on record?
Its inhibition is -3.73%.

And the inhibition (Thailand/16681/1984, Concentration 99.01 uM, Number of replicates 2.0, Standard deviation 1.3330253926635593 %)?
The inhibition was 0.537%.

And the inhibition (Thailand/16681/1984, Concentration 198.0 uM, Number of replicates 2.0, Standard deviation 1.9740117132174586 %)?
Its inhibition is 6.85%.

How did the inhibition [1] turn out when `O=Cc1ccc(N2CCC(C(=O)Nc3n[nH]cc3Br)CC2)cc1` was run?
The inhibition was 13.1%.

With `COc1ccc(CNC(=O)C2CCN(c3ccc(C=O)cc3)CC2)c(Cl)c1` as the molecule, how does the inhibition [1] read?
The inhibition was 11.6%.

How did the inhibition [1] turn out when `O=Cc1ccc(N2CCC(C(=O)NCc3ccc(F)c(Cl)c3)CC2)cc1` was run?
Its inhibition is 10.7%.

Which inhibition [1] does the source give for `O=Cc1ccc(N2CCC(C(=O)Nc3ccc(-n4ccnc4)cc3)CC2)cc1` here?
Its inhibition is 14%.

For `O=Cc1ccc(N2CCC(C(=O)Nc3ccc4nccnc4c3Br)CC2)cc1`, which inhibition [1] is on record?
The inhibition was 15.2%.

`Cc1cnccc1NC(=O)C1(C(=O)Nc2ccc(F)cc2)CC1` was tested. Which inhibition (Thailand/16681/1984, Concentration 49.5 uM, Number of replicates 2.0, Standard deviation 0.7679495502283891 %) did it give?
Its inhibition is -1.86%.

What about the inhibition (Thailand/16681/1984, Concentration 99.01 uM, Number of replicates 2.0, Standard deviation 0.5589540337623873 %) of the same molecule?
Its inhibition is -1.99%.

And the inhibition (Thailand/16681/1984, Concentration 198.0 uM, Number of replicates 2.0, Standard deviation 1.058583807287932 %)?
Its inhibition is -1.28%.

How did the inhibition (Thailand/16681/1984, Concentration 49.95 uM, Number of replicates 2.0, Standard deviation 2.5506525665903212 %) turn out when `Cc1cc(CO)c2cccc(Cc3cccc(NC(=O)c4ccc(O)cc4)c3)c2n1` was run?
Its inhibition is 1.47%.

What about the inhibition (Thailand/16681/1984, Concentration 99.9 uM, Number of replicates 2.0, Standard deviation 2.3754855648054365 %) of the same molecule?
Its inhibition is 4.66%.
